The assay addresses T1, human brain derived neurotrophic factor (human, UniProt P23560 129-247, limits assumed).
T1 construct: the assays used the R&D Systems protein; also called BDNF; hBDNF
T1 sequence (looked up): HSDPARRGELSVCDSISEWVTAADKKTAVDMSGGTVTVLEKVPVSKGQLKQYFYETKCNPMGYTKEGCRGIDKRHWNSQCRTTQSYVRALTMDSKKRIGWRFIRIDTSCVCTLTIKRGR
The assay can be described thus: ELISA, dose-response of TrkB on plate-coated BDNF. From the text:
FIG. 5. Consists of FIG. 5A and FIG. 5B which show the ability of anti-mouse TrkB monoclonal antibodies to block interaction between mouse or rat TrkB and its ligand BDNF (Brain Derived Neurotrophic Factor). ELISA-based methods were used to assess the binding of (FIG. 5A with two graphs) mouse TrkB.hFc and (FIG. 5B with two graphs) rat TrkB.mmh to plate coated BDNF in presence of a range of concentrations of Anti-mouse TrkB and isotype control mAbs. […] Molarity (M) indicates antibody concentration for mAbs. Error bars represent Standard Deviation.
Experiments were carried out using the following procedure. Human BDNF was coated at a concentration of 0.5 μg/mL (for blocking mouse TrkB.hFc interaction) or 0.3 μg/mL (for blocking rat TrkB.mmh interaction) in PBS on 96-well microtiter plate and incubated overnight at 4° C. […] In a 96-well dilution plate, 850 pM mouse TrkB.hFc or rat TrkB.mmh was mixed with the three-fold serially diluted anti-mouse TrkB antibodies and control antibody. The final antibody concentrations ranged from 1.69 pM to 100 nM. The protein-antibody mix was incubated at room temperature (RT) for 1 hour. […] Plate-bound mouse TrkB.hFc was detected with HRP-conjugated goat anti-human Fcγ fragment specific antibody (Jackson Immunoresearch) and rat TrkB.mmh was detected with HRP-conjugated anti-histidine antibody (Qiagen). […]
(In general: An ELISA detects its analyte on a solid surface through an enzyme-linked reagent.)

B1: mouse TrkB.hFc (Fc fusion)
chain: not shown
notes: also called mTrkB.hFc; mTrkB-hFc
By EC50 is commonly meant the concentration giving half of the maximal effect. Low values mean greater potency, high ones weaker potency. B1 showed an EC50 of 0.78 nM.

The record behind these values is US20190161551A1 (Regeneron, published 2019).
